These results are taken from the supplement of paper PMC11348887.

Structures can show the parent of a compound that is named as a salt. The list shows a part of the results. Cut-off read from the data, not from the text of the source: active = -2 or less and inactive = the rest. Single values are uncertain, as repeats are few or missing.
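Note: nuclei counted from DAPI counterstain by automated high-content image analysis, four fields per well at ×20 in 384-well plates, with sequential b-score then z-score normalization.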

For the test, the system named is hPSC-derived cortical neurons (WA09). Nature of the test: nuclei number (viability) z-score; higher = more surviving cells. To be noted: 5 µM; treatment: days 7-14 after plating, readout day 21.
As to `c1cc(-c2cnn3cc(-c4ccc(OCCN5CCCCC5)cc4)cnc23)ccn1` [Dorsomorphin 2HCl], the “nuclei number (z-score)” value is inactive: -0.696. To `c1cc(-c2cnn3cc(-c4ccc(OCCN5CCCCC5)cc4)cnc23)ccn1` [Dorsomorphin (Compound C)] belongs inactive: 0.146.

As for `CN1CCC(NC(=O)c2cc(-c3c(O)cc(O)cc3Oc3ccc([N+](=O)[O-])cc3)on2)CC1`, the “nuclei number (z-score)” value was active: -4.27.

Turning to `Cc1cc(-c2ncc(CC(=O)Nc3ccc(-c4cnccn4)cn3)cc2C)ccn1`, the “nuclei number (z-score)” value was inactive: 1.08. To `Cc1cnc(C(=O)NCCc2ccc(S(=O)(=O)NC(=O)NC3CCCCC3)cc2)cn1` [Glipizide] belongs inactive: -0.534; to `COc1ncc(-c2ccc3nccc(-c4ccnnc4)c3c2)cc1NS(=O)(=O)c1ccc(F)cc1F`, active: -6.65. To `COc1cc2ncnc(Oc3ccc(CC(=O)Nc4cnn(C(C)C)c4)cc3)c2cc1OC` belongs inactive: -0.273; to `CN1CCC(=C2c3ccccc3CCc3sccc32)CC1` [Pizotifen Malate], inactive: -0.541. As for `CN1CCOC(c2ccccc2)c2ccccc2C1` (stereo unspecified) [Nefopam HCl], the “nuclei number (z-score)” value is inactive: -0.172. To `CC(C)=CCC/C(C)=C/CC/C(C)=C/CSc1ccccc1C(=O)O` [Salirasib] belongs inactive: 3.04; to `CCCCCOC(=O)Nc1nc(=O)n([C@@H]2O[C@H](C)[C@@H](O)[C@H]2O)cc1F` [Capecitabine], inactive: 1.23. As for `CCCCNc1ccc(C(=O)OCCN(C)C)cc1` [Tetracaine HCl], the figure is inactive: -1.05. To `O=C(O)[C@H]1CSC(c2nc3ccc(O)cc3s2)=N1` [D-Luciferin] belongs inactive: 6.28; to `CCN(CC)CCOc1ccc(C(=C(Cl)c2ccccc2)c2ccccc2)cc1` [Clomifene citrate], active: -5.98.

As for `CN(C)CCCn1cc(C2=C(c3c[nH]c4ccccc34)C(=O)NC2=O)c2ccccc21`, the “nuclei number (z-score)” value is inactive: -0.102. As for `COc1nc(N)nc2c1ncn2[C@@H]1O[C@H](CO)[C@@H](O)[C@@H]1O` [Nelarabine], the figure is inactive: -0.418; as for `COc1ccccc1N1CCN(CCCNc2cc(=O)n(C)c(=O)n2C)CC1` [Urapidil HCl], inactive: 1.6. To `O=C(Nc1cccc(Nc2ncc(Br)c(NCCc3cnc[nH]3)n2)c1)N1CCCC1` belongs inactive: 0.429; to `CCN(CC)Cc1cc(Nc2ccnc3cc(Cl)ccc23)ccc1O` [Amodiaquine dihydrochloride dihydrate], active: -2.14; to `Cc1cc(C)nc(SCC(=O)Nc2ncc(Cc3cccc4ccccc34)s2)n1`, inactive: 0.386. As for `O=C(O)C(S)=Cc1c[nH]c2ccc(F)cc12`, the figure is inactive: 3.71; as for `O=C(/C=C/C=C/c1ccc2c(c1)OCO2)N1CCCCC1` [Piperine], inactive: 0.473; as for `O=c1c2ccccc2nc2n1CCc1c-2[nH]c2ccccc12` [Rutaecarpine], inactive: -0.13. Take `CCC(=O)OCC(=O)[C@@]1(OC(=O)CC)[C@@H](C)C[C@H]2[C@@H]3CCC4=CC(=O)C=C[C@]4(C)[C@@]3(Cl)[C@@H](O)C[C@@]21C` [Beclomethasone dipropionate]: the “nuclei number (z-score)” value was inactive: 2.25.

As to `CC(C)NCC(O)c1cc(O)cc(O)c1` (stereo unspecified) [Metaproterenol Sulfate], the “nuclei number (z-score)” value was inactive: 0.00371.

As to `C[C@H]1Oc2cc(cnc2N)-c2c(nn(C)c2C#N)CN(C)C(=O)c2ccc(F)cc21`, the “nuclei number (z-score)” value was inactive: 0.219.

Regarding `C[C@@]1(c2cc(-c3cncnc3)c(F)cc2F)CCSC(N)=N1`, the “nuclei number (z-score)” value was inactive: 0.83. As for `O=C1NC(=O)[C@@H](c2cn3c4c(cccc24)CCC3)[C@@H]1c1c[nH]c2ccccc12` [Tivantinib (ARQ 197)], the figure is inactive: -1.14; as for `CCc1cnn2c(NCc3ccc[n+]([O-])c3)cc(N3CCCC[C@H]3CCO)nc12`, active: -6.61; as for `CC(C)(C(=O)NCC(F)(F)C(F)(F)F)C(=O)N[C@@H]1C(=O)Nc2ccccc2-c2ccccc21`, inactive: -0.313. As for `Cc1cc(C)c(CNC(=O)c2cc(-c3ccc(N4CCN(C)CC4)nc3)cc3c2c(C)cn3C(C)C)c(=O)[nH]1`, the figure is inactive: 0.361; as for `Cc1ccc(-c2c(-c3nn(C)c4ncnc(N5CC[C@H](N6CCCCC6)C5)c34)cnn2C)cc1`, inactive: 0.367. As for `Cc1ccsc1C(=CCCN1CCC[C@@H](C(=O)O)C1)c1sccc1C` [Tiagabine hydrochloride], the figure is inactive: -0.134; as for `Cc1ccsc1C(=CCCN1CCC[C@@H](C(=O)O)C1)c1sccc1C` [Tiagabine], inactive: 0.797. On to `O=C1c2c(O)cc(O)cc2O[C@H](c2cc(O)c(O)c(O)c2)[C@H]1O` [Dihydromyricetin], for which the “nuclei number (z-score)” value is inactive: -1.98. As for `O=C1OC(CN2CCOCC2)CN1/N=C/c1ccc([N+](=O)[O-])o1` (stereo unspecified) [Furaltadone HCl], the “nuclei number (z-score)” value is inactive: 0.575. To `O=C(CNc1ccc2ccccc2c1)N/N=C/c1cc(Br)c(O)c(Br)c1O` belongs inactive: 1.15; to `C[C@H]1[C@H](OC(=O)CCC(=O)O)O[C@@H]2O[C@@]3(C)CC[C@H]4[C@H](C)CC[C@@H]1[C@@]24OO3` [Artesunate], inactive: 0.0144. As for `CCOc1cc(N)c(Cl)cc1C(=O)NCC1CN(Cc2ccc(F)cc2)CCO1` (stereo unspecified) [Mosapride Citrate], the figure is inactive: 0.672.

Consider `COC(=O)[C@H](CCSC)NC(=O)c1ccc(NC[C@@H](N)CS)cc1-c1ccccc1`, for which the “nuclei number (z-score)” value was inactive: 0.372.

`Cc1cccc(Nc2ccccc2C(=O)O)c1C` [Mefenamic Acid]: the “nuclei number (z-score)” value is inactive: -0.863. To `CCC(C)n1ncn(-c2ccc(N3CCN(c4ccc(OCC5COC(Cn6cncn6)(c6ccc(Cl)cc6Cl)O5)cc4)CC3)cc2)c1=O` (stereo unspecified) [Itraconazole] belongs inactive: 0.373; to `C[n+]1ccccc1/C=N/O` [Pralidoxime chloride], inactive: 1.54. To `CN(C)CCNC(=O)c1cccn2c(=O)c3cc4ccccc4cc3nc12` belongs active: -4.53. With `CC1(C)S[C@@H]2[C@H](NC(=O)Cc3ccccc3)C(=O)N2[C@H]1C(=O)O` [Penicillin G Sodium], the “nuclei number (z-score)” value is inactive: -0.221.

As to `CCCCc1nc(Cl)c(CO)n1Cc1ccc(-c2ccccc2-c2nnn[nH]2)cc1` [Losartan Potassium (DuP 753)], the “nuclei number (z-score)” value is inactive: -0.277.
